# In PubChem BioAssay AID485294 (National Center for Advancing Translational Sciences (NCATS), 2010):
# Among all 370,000 compounds or so, about 150 (0.041%) were called active. The inconclusive results got no clear call from the source; some entries with a clear call stand among them for comparison. The call rests on the fitted dose curve; in most records, active means well fitted inhibition curve with a large enough effect; inconclusive means small, poorly fitted or top-dose-only effect; inactive means flat fitted curve, though single readings scatter. Potencies of inconclusive entries are left out as doubtful fits.
# Biological target: Beta-lactamase (Escherichia coli (strain K12)) (UniProt P00811)
# Chain of UniProt P00811 (P00811 whole entry, looked up): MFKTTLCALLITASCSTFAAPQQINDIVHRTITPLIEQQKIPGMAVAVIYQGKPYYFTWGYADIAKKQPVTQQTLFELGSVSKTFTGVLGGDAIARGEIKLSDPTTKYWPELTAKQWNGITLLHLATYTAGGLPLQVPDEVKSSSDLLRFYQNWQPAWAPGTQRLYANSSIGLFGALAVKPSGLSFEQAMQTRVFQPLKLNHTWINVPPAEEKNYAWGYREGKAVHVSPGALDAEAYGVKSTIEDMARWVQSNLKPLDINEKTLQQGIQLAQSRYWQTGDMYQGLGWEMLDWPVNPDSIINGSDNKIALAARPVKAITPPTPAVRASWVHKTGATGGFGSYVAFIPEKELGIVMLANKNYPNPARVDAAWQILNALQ
# Assay: qHTS Inhibitors of AmpC Beta-Lactamase (assay with detergent); further: nearly all actives have a fitted effect of over 25% in size
# Settings: AmpC hydrolysis of nitrocefin, absorbance 480 nm, 0.01% Triton; series mostly up to 114 µM
# How it was run: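 20 mM phosphate pH 7.0 + 0.01% (detergent screen) or 0.0001% Triton X-100; 5.3 nM AmpC reagent; cpd preinc 15 min RT; nitrocefin (800 uM stock) to start; A480 q20 s × 4 min; Activity was normalised to no-enzyme and no-compound control wells.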
# Potency means the concentration at half of the fitted maximal effect; tags describe the fitted curve by direction and shape.
row,Compound,Potency
1,CC(Cc1ccsc1)NC(=O)CCc1nnc(COc2ccccc2)o1 (centres undefined),inactive
2,CSc1ncccc1C(=O)OCC(=O)NC(C)C,"inconclusive [inhibitor, full curve, poor fit]"
3,COc1ccc(CNC(=O)c2sccc2-c2ccccc2)cc1OC,inactive
4,Cc1nc2c(ccc3nc(NC(=O)c4ccc5c(c4)OCCO5)sc32)s1,inactive
5,CC(=O)Oc1ccc(C2C3=C(CC(C)(C)CC3=O)Nc3cc4c(cc32)OCCO4)cc1 (centres undefined),inactive
6,COC(=O)/C(C#N)=C/c1ccc(C)o1,inactive
7,COc1ccc(-c2nnc(SCC(=O)NNC(=O)Cc3ccccc3)n2C)cc1OC,"inconclusive [inhibitor, partial curve, poor fit]"
8,COc1ccc(C(=O)NCC(c2cccs2)S(=O)(=O)c2cccs2)cc1 (centres undefined),inactive
9,CCOC(=O)CC1=CC(=O)Nc2ccccc2N1,"inconclusive [inhibitor, full curve, poor fit]"
10,C=CCn1c(C)cc(C(=O)COC(=O)c2cncc(Br)c2)c1C,inactive
11,C=CCSc1nc2c(cc1C#N)CCC2,inactive
12,COCCN(CC(=O)Nc1cccc(C)c1C)C(=O)Cn1cnc2ccccc2c1=O,"inconclusive [inhibitor, full curve, poor fit]"
13,COCCCNC(=O)C1CC(=O)N(c2ccc(C)cc2)C1 (centres undefined),"inconclusive [inhibitor, partial curve, poor fit]"
14,COc1ccc(CN2CCNC(=O)C2CC(=O)N(C)Cc2ccno2)c(F)c1 (centres undefined),"inconclusive [inhibitor, full curve, poor fit]"
15,CCOc1ccc(CCNC(c2nnc(-c3ccccc3)o2)c2ccccc2Cl)cc1OCC (centres undefined),inactive
16,O=S(=O)(Nc1ccc(N2CCCCC2)cc1)c1cccc2cccnc12,"inconclusive [inhibitor, full curve]"
17,Cc1ccc(C(=O)COC(=O)c2cccc(NC(=O)c3ccc([N+](=O)[O-])cc3[N+](=O)[O-])c2)cc1,"inconclusive [inhibitor, full curve]"
18,CC(C)CNC(=O)CN(C)S(=O)(=O)c1ccc(F)cc1,"inconclusive [inhibitor, full curve]"
19,Cc1noc(C)c1C(=O)NCCCc1ccccc1,"inconclusive [inhibitor, full curve, poor fit]"
20,COCCn1c(SCC(=O)NNC(=O)c2cc(Cl)ccc2OC)nnc1-c1ccncc1,"inconclusive [inhibitor, full curve, poor fit]"
21,Cc1ccc(-n2nc3c(c2NC(=O)c2ccco2)CS(=O)C3)c(C)c1 (centres undefined),"inconclusive [inhibitor, partial curve, poor fit]"
22,Cc1ccc(OCC(=O)NNC(=O)c2cc(C)[nH]n2)cc1,"inconclusive [inhibitor, full curve, poor fit]"
23,Cc1ccc(NC(=O)CC(NCCN2CCOCC2)C(=O)O)cc1Cl (centres undefined),"inconclusive [inhibitor, single point]"

row,Compound,Potency
1,COc1ccc(CCC(=O)N2CCCC(Nc3ccccc3)C2)cc1OC (centres undefined),"inconclusive [inhibitor, full curve, poor fit]"
2,COc1ccccc1NS(=O)(=O)c1cc(NC(=O)/C=C/c2cccs2)ccc1N1CCOCC1,"inconclusive [inhibitor, full curve, poor fit]"
3,CCN(CC)C(=O)COc1c(-c2ccco2)oc2ccccc2c1=O,inactive
4,COc1ccc(CN2C(=O)N(c3ccc(C)cc3)C(=O)C2CC(=O)Nc2ccccc2)cc1OC (centres undefined),inactive
5,C/C(CC(=O)Nc1cccc(Cl)c1)=N\NC(=O)Cc1ccc(Cl)cc1,"inconclusive [inhibitor, single point]"
6,CC(C)Cn1c(N)c(C(=O)COC(=O)c2cc(-c3ccccc3)nc3ccccc23)c(=O)n(C)c1=O,"inconclusive [inhibitor, full curve, poor fit]"
7,Cc1ccc2nc(SCCC#N)nc(C)c2c1,"inconclusive [inhibitor, full curve]"
8,Cc1ccc(CNC(=O)C2CCN(S(=O)(=O)c3ccc4c(c3)CC(C)N4C(=O)C3CCC3)CC2)o1 (centres undefined),"inconclusive [inhibitor, full curve, poor fit]"
9,Cc1cc(N2C(=O)CC(Cc3ccc(Cl)cc3)C2=O)no1 (centres undefined),"inconclusive [inhibitor, full curve, poor fit]"
10,CC1C(=O)N2CCCc3cc(S(=O)(=O)N4CCN(c5ccccc5F)CC4)cc1c32 (centres undefined),inactive
11,O=C1CC(N(CCc2ccccc2)C(=S)Nc2cc(Cl)ccc2Cl)C(=O)N1c1c(Cl)cccc1Cl (centres undefined),inactive
12,CCOC(=O)[C@H]1[C@H]2COc3cc(OC)ccc3[C@@H]2N2C(=O)N(c3ccc(Cl)cc3)C(=O)[C@@]12C,"inconclusive [inhibitor, full curve, poor fit]"
13,Cc1ccc2nsnc2c1S(=O)(=O)N1CCCC1,"inconclusive [inhibitor, partial curve, poor fit]"
14,Cc1cnc(NC(=O)c2ccco2)s1,"inconclusive [inhibitor, full curve]"
15,Cc1nn(C)c(C)c1S(=O)(=O)N1CCC(C(=O)NC2CCCCCC2)CC1,"inconclusive [inhibitor, full curve]"
16,CC(CC(=O)Nc1nc2ccccc2[nH]1)n1ccnc1 (centres undefined),"inconclusive [inhibitor, full curve, poor fit]"
17,N#Cc1c(NC(=O)CS(=O)(=O)c2ccc(Cl)cc2)sc2c1CCCCC2,inactive
18,CC1CN(C(=O)c2cccs2)CCN1C(=O)c1cccs1 (centres undefined),"inconclusive [inhibitor, full curve, poor fit]"
19,CCN1CSC(=S)N(Cc2ccccc2)C1,inactive
20,COCCn1c(=O)[nH]c2cc(C(=O)NCCc3ccc(OC)c(OC)c3)ccc2c1=O,"inconclusive [inhibitor, single point]"
21,Cc1ccccc1-n1c(=O)cc(N2CCN(C(=O)c3ccco3)CC2)[nH]c1=O,"inconclusive [inhibitor, full curve]"
22,CC(C)CN(CC(C)C)S(=O)(=O)N1CCC(C(=O)NC2CCCCCCC2)CC1,inactive
23,CCCCN1C(=O)/C(=C2/Sc3ccc(Cl)cc3N2CC)SC1=S,"inconclusive [inhibitor, full curve, poor fit]"

row,Compound,Potency
1,CN1C(=O)C2(NC(=O)c3ccccc3N2C)c2ccccc21 (centres undefined),inactive
2,Cc1ccc2nc(NCCO)nc(-c3ccccc3)c2c1,"inconclusive [inhibitor, full curve]"
3,Cc1csc(C2=C(O)CN(CCc3ccccc3)C2=N)n1,"inconclusive [inhibitor, partial curve]"
4,O=c1oc2ccccc2cc1-c1cn2cc(Cc3ccccc3F)sc2n1,inactive
5,COC1(OC)N=C(NC(=O)Nc2ccccc2)C2(C#N)C(c3ccccc3)C12C#N (centres undefined),"inconclusive [inhibitor, full curve, poor fit]"
6,N=c1c2c3c(sc2ncn1Cc1ccccc1)CCCC3,inactive
7,O=C(O)c1ccccc1-c1noc(-c2ccccc2F)n1,inactive
8,COc1ccc(-c2cc3c(=O)n(CC(=O)NCc4ccccc4F)ncn3n2)cc1,"inconclusive [inhibitor, partial curve]"
9,Cc1ccc2nc(N(CCCN(C)C)C(=O)c3cc(-c4cccs4)nc4ccccc34)sc2c1,"inconclusive [inhibitor, full curve, poor fit]"
10,Nc1n[nH]c(-c2ccccc2)c1-c1ccccc1,"inconclusive [inhibitor, full curve]"
11,O=C(Nc1ccc(N2CCN(C(=O)c3ccccc3)CC2)cc1)c1ccc(Br)o1,inactive
12,CC(C)c1nc(SCC(=O)NC2CCCCC2)c2ccccc2n1,"inconclusive [inhibitor, partial curve, poor fit]"
13,O=C(Cc1ccccc1)NC(NCCCN1CCOCC1)(C(F)(F)F)C(F)(F)F,"inconclusive [inhibitor, partial curve, poor fit]"
14,Cc1ccc(S(=O)(=O)NCC23C=CC(O2)C2C(=O)N(c4ccccc4)C(=O)C23)cc1 (centres undefined),"inconclusive [inhibitor, single point]"
15,CNC(=O)CN(Cc1ccccc1)S(=O)(=O)c1ccccc1,"inconclusive [inhibitor, single point]"
16,CCc1nnc(NS(=O)(=O)c2ccc(N3C(=O)c4ccccc4C3=O)cc2)s1,inactive
17,COc1ccc(CNS(=O)(=O)c2ccc(OC)cc2)cc1,"inconclusive [inhibitor, full curve]"
18,CCCc1cc(=O)oc2cc(C)cc(OCC(=O)NCCCn3ccnc3)c12,"inconclusive [inhibitor, full curve]"
19,CCOc1ccc(CCNC(=O)c2cc(S(=O)(=O)N3CCOCC3)ccc2C)cc1OCC,"inconclusive [inhibitor, full curve, poor fit]"
20,CCOC(=O)c1c(Cc2ccccc2)c[nH]c1C,inactive
21,CC(C)N1CCN(S(=O)(=O)c2ccccc2)CC1,"inconclusive [inhibitor, full curve]"
22,Cc1ccc(OCCC(=O)OCC(=O)Nc2cc(S(=O)(=O)N(C)C)ccc2C)cc1,inactive
23,C=CCOc1ccc(C2N3CC4(CC)CN2CC(CC)(C3)C4=O)cc1 (centres undefined),"inconclusive [inhibitor, full curve, poor fit]"
